SMILES strings stand for the structures. Hit rate of the full screen: of about 7,900 compounds, about 400 (5.1%) showed an effect of 50% or more. Some of the results follow.

Parkinson's disease protein 7 (PARK7/DJ1), sequence (Q99497 whole entry, looked up, the tested form may be a part): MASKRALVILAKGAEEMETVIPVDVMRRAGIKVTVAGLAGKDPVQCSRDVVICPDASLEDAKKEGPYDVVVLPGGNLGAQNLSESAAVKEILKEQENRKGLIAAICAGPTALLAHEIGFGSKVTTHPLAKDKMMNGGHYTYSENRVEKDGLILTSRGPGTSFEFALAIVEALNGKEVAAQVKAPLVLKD

The target in this experiment is Parkinson's disease protein 7 (PARK7/DJ1) (human, UniProt Q99497). The experiment in a line: primary screen, percent inhibition; read as competition with a fluorescent probe by fluorescence polarization; higher = more effect of the substance. The conditions noted are these: 100 µM. The method, then:
The screen was conducted using the conditions as described above in 1536-well plates (Corning 3724) with a reaction volume of 8 μL per well. The compound library containing 7887 covalent fragments was purchased at Enamine Ltd. and received as 100 mM DMSO stocks in 384 well LDV Echo plates (Labcyte LP-0200). Stock solutions of 0.26 μM PARK7 and 80 nM JYQ-107 were prepared. Using a Labcyte Echo550 acoustic dispenser, 8 nL of the DMSO stock solution of the library compounds was transferred from the source plates into the empty 1536-well screening plates to obtain a 100 μM final compound concentration. Next, PARK7 (6 μL, final concentration 0.2 μM) was dispensed using a Biotek MultiflowFX liquid dispenser and incubated for 2 h, followed by dispensing the probe JYQ-107 (2 μL, final concentration 20 nM). After 2 h incubation, the FP signal was recorded on a BMG Labtech PHERAstar plate reader (λex/em 480/520 nm). The relative loss of FP signal compared with reference controls was used to calculate the remaining enzyme activity.
As to `C=CC(=O)NC1(C)CCC(C)CC1` (stereo not shown), the Inhibition % turned out to be 29.1%.
`CC(C#N)(NC(=O)CCl)C1CC1` (stereo not shown): the Inhibition % was 23.6%.
The figure for `C=CC(=O)NCC1c2ccccc2C(=O)N1C` (stereo not shown) is 7.14%; for `C=CC(=O)NCc1ccc2ccccc2n1` it is -0.809%.
The result for `O=C1OCCC1Sc1nc2ccccc2[nH]1` (stereo not shown) reads 5.18%; that for `N#CC(=CN1CCOCC1)c1ccccc1`, 3.68%.
`Cc1c(C#N)nn(-c2cccnc2)c1N`: the Inhibition % is listed as 10%.
The figure for `C=CC(=O)N1CCOC(C)(COC)C1` (stereo not shown) is -1.67%.
As for `C=CC(=O)NCCCN1CCc2ccccc2C1`, the Inhibition % is 10.8%.
For the compound `Cc1ccc(S(=O)(=O)OCC2CCCO2)cc1` (stereo not shown), the Inhibition % is 11.3%.
Turning to `N#CC(C(=O)N1CCCCC1)=C1N=C(N)c2ccccc21`, the Inhibition % was determined as 10.2%.
Regarding `CNC(=O)C(C#N)=Cc1cc(C)n(-c2cc(C)on2)c1C`, the Inhibition % is 4.49%.
Turning to `C=CC(=O)N1CC(CC)(c2ccccc2)C1`, the Inhibition % is reported as 4.4%.
As to `C=CC(=O)N1CCN(c2c(F)cccc2OC)CC1`, the Inhibition % is on record as 12%.
`C=CC(=O)NC1CCN(CC2CCOC2)CC1` (stereo not shown): the Inhibition % is 7.79%.
As for `C=CC(=O)NC1CCc2cnn(C(C)C)c2C1` (stereo not shown), the Inhibition % is reported as 16%.
The figure for `CC1NC(=O)CCC1Nc1ccc(C(F)(F)F)c(C#N)n1` (stereo not shown) is 15.4%; for `C=CC(=O)NC1COc2c(C)cccc2C1` (stereo not shown) it is 10.9%.
With `N#CCc1ccc(NC(=O)CCl)cc1`, the Inhibition % is given as 88.8%.
Take `O=c1[nH]c(-c2ccc(S(=O)(=O)F)cc2)nc2sc3c(c12)CCC3`: the Inhibition % is 15.9%.
Turning to `C=CC(=O)Nc1cc(Cl)c(OC)cc1OC`, the Inhibition % came out at 27.2%.
On to `O=C(CCl)NNC(=O)C1COc2ccccc2O1` (stereo not shown), for which the Inhibition % is recorded as -4.99%.
For `C=CC(=O)Nc1cc(C)nn1C1CCOCC1`, the Inhibition % came to 11.4%.
For the compound `CC1CC(N(C)Cc2cccc(F)c2)C(=O)O1` (stereo not shown), the Inhibition % is listed as 10.2%.
The result for `C=CC(=O)NC12CC1COC2(C)C` (stereo not shown) reads 7.43%; that for `N#CNc1ccccc1Cl`, 10.4%.
The result for `O=C(CCl)N1CCC(c2ccccc2)=N1` reads 90.5%; that for `O=C(CCl)N1CCN(Cc2ccc3c(c2)OCCO3)CC1`, 15.8%.
Turning to `Cc1ccc(CN(C)C2CCOC2=O)cc1` (stereo not shown), the Inhibition % is 4.59%.
Take `NC(=O)Cc1ccc(C(=O)CCl)s1`: the Inhibition % is recorded as 97.4%.
With `O=C1CN(S(=O)(=O)C=Cc2ccccc2)CCN1`, the Inhibition % was determined as 2.81%.
On to `N#CC(=Cc1cccc(Oc2ccccc2)c1)C(N)=O`, for which the Inhibition % was determined as 4.25%.
For `O=C(CCl)N1CCCCC1`, the Inhibition % was found to be 11.2%.
For `CC1(S(=O)(=O)NC2CN(c3ccc(F)cc3)C2=O)CC1` (stereo not shown), the Inhibition % was determined as 10.3%.
For `Cc1ccccc1OCC1CO1` (stereo not shown), the Inhibition % is 13.4%.
`COC(=O)Cc1csc(NC(=O)CCl)n1`: the Inhibition % is 20.2%.
As for `N#Cc1nnc2ccccc2c1Cl`, the Inhibition % was determined as 10.1%.
The result for `N#CC(=Cc1cnn(-c2ccc(Cl)cc2)c1)C(=O)O` reads 23.2%.
The result for `O=c1[nH]c(S)nc2ccsc12` reads 7.43%; that for `N#Cc1cc2c(nc1S)CCCC2`, 8.71%; that for `N#CC(=CC=Cc1ccccc1)C(=O)NC1CC1`, 0.974%.
`C=CC(=O)NCC1COc2ccccc21` (stereo not shown): the Inhibition % turned out to be 8.08%.
`CC(C)(C)C1CCc2c(sc(NC(=O)CCl)c2C#N)C1` (stereo not shown): the Inhibition % was found to be 2.27%.
Turning to `CC1=NOC(=O)C1CCC(=O)O` (stereo not shown), the Inhibition % is 8.64%.
In the case of `C=CC(=O)NC(C1CCC1)C1CCC1`, the Inhibition % was determined as 8.44%.
Turning to `Cc1cc(S)nc(C)n1`, the Inhibition % worked out at 41.7%.
`Cc1ccc(C=C(C#N)c2nc3ccccc3[nH]2)o1`: the Inhibition % stood at 43.8%.
`N#Cc1cc(C(=O)N2C[C@@H](F)C[C@H]2CO)c[nH]1`: the Inhibition % turned out to be 13.8%.
Regarding `CC1CC(N2CCCC2Cn2cncn2)C(=O)O1` (stereo not shown), the Inhibition % came to 22%.
As for `NCC1CCN(C(=O)C=Cc2ccc3ccccc3n2)C1` (stereo not shown), the Inhibition % is given as 5.25%.
For the compound `C=CC(=O)NCc1ccc(F)cc1`, the Inhibition % is -22.1%.
The result for `COc1ccc(S(=O)(=O)n2ccc(C)n2)cc1` reads 7.42%; that for `COCC(C)n1c(C)cc(C=C(C#N)C(=O)O)c1C` (stereo not shown), 2.37%; that for `COc1ccc(NC(=O)CCl)cc1S(=O)(=O)N(C)C`, 9.41%.
As for `C=CC(=O)N1CCc2cccc(F)c2C1C` (stereo not shown), the Inhibition % is recorded as 3.47%.
Turning to `Cc1cc(C#N)nc2ccccc12`, the Inhibition % stood at 10.2%.
The result for `CN(c1cnn(C)c1)S(=O)(=O)c1ccccc1S(=O)(=O)F` reads 98.1%.
With `O=C1CN=C(S)N1Cc1ccccc1Cl`, the Inhibition % was determined as 7.62%.
As to `COc1cccc(C(=O)N2CCCCC2C2OCCO2)c1` (stereo not shown), the Inhibition % was 12.5%.
`C=CC(=O)NC1CCN(c2ccccc2OC)C1` (stereo not shown): the Inhibition % came to 13.3%.
The result for `CCc1nccn1S(=O)(=O)c1ccc(C)c(C)c1` reads 3.48%.
As to `C=CC(=O)NC1CC(SC)C1` (stereo not shown), the Inhibition % was 3.62%.
The result for `Cc1ccc(F)c(N(C#N)CCn2cncn2)c1` reads 24.8%; that for `C=CC(=O)Nc1nc2ccc(NC(C)=O)cc2s1`, 7.52%.
The result for `O=C(C=CC1=CCCC1)N1CCCC(N2CCNC2=O)C1` (stereo not shown) reads 28%; that for `COc1c(C)cc(S(=O)(=O)n2nc(C)cc2C)c(C)c1C`, 7.42%; that for `N#Cc1ncn(CC(=O)Nc2cc(Cl)ccc2Cl)n1`, 5.71%.
Consider `Cc1ccsc1CNC(=O)CCl`, for which the Inhibition % was -0.856%.
As to `Cl.Cn1nccc1C=CC(=O)N1CCCNCC1`, the Inhibition % was found to be 8.67%.
Turning to `C=CC(=O)N1CCOC(c2nc(C)cs2)C1` (stereo not shown), the Inhibition % was 6.6%.
Regarding `Cc1n[nH]c(=O)c2c(NC(=O)CCl)oc(C)c12`, the Inhibition % was 30%.
The figure for `Cc1ncc(CN(C)C(=O)c2cccnc2S)s1` is 6.27%.
Regarding `O=C(O)c1ccc2c(c1)B(O)OC2`, the Inhibition % stood at 6.29%.
In the case of `C=CC(=O)N1CCC(c2ccc(OC)cn2)CC1`, the Inhibition % is reported as 3.08%.
`COc1ccc(NC(C)=O)cc1NC(=O)CCl`: the Inhibition % is reported as 10.5%.
For `Cn1cc(C=C(C#N)C(N)=O)c(-c2ccccc2Cl)n1`, the Inhibition % is 8.92%.
Take `C=CC(=O)N1CCOc2ccc(F)cc2C1`: the Inhibition % turned out to be 11.2%.
The result for `C=CC(=O)Nc1ccccc1CN1CCOCC1` reads 8.41%.
Regarding `C=CCn1c(S)nc2cc(C(=O)O)ccc2c1=O`, the Inhibition % came out at 4.61%.
`Cc1nc(C=CC(=O)N2CCNCC2C)cs1` (stereo not shown): the Inhibition % is given as -1.13%.
Take `C=CC(=O)NC1CCN(c2ccc(Cl)c(F)c2)C1` (stereo not shown): the Inhibition % is reported as 7.63%.
With `CC1(C)OB(c2cc(Br)ccc2F)OC1(C)C`, the Inhibition % turned out to be 18.2%.
With `C=CC(=O)N1CCC(c2ccc(C)nc2)CC1`, the Inhibition % is given as 4.08%.
The figure for `Cl.O=C(CCl)Nc1ccc(N2CCCCC2)cc1` is 89.3%; for `CC(C)(C)c1ccc(NC(=O)Cn2cnc(C#N)n2)cc1` it is 25.6%; for `CC1(C)OB(c2cnn(-c3ccccn3)c2)OC1(C)C` it is 24.7%.
With `N#CN(Cc1ccc(C(N)=O)cc1)c1ccc(F)cc1`, the Inhibition % is on record as 3.09%.
As to `O=S(=O)(F)c1ccc2ccccc2n1`, the Inhibition % is 69.3%.
For the compound `O=c1oc(-c2ccccc2)nn1CN1CCCCC1`, the Inhibition % is reported as 3.5%.
With `C=CC(=O)Nc1ccc(N2CCN(C)CC2)nc1`, the Inhibition % was 15%.
The figure for `CCc1nccn1S(=O)(=O)c1cc(C)c(OC)cc1C` is 7.23%.
`C=CC(=O)Nc1ccc2c(c1)COC2`: the Inhibition % was 11.5%.
In the case of `COc1cccc(C2(C)NC(=O)N(NC(=O)CCl)C2=O)c1` (stereo not shown), the Inhibition % came out at 2.08%.
The figure for `Cl.ClCCN1CCCCC1` is 2.77%; for `CC1CNCCN1C(=O)C=Cc1ccnn1C.O=C(O)C(F)(F)F` (stereo not shown) it is 3.18%.
As for `CC1CC1c1ccc(C=CC(N)=O)o1` (stereo not shown), the Inhibition % stood at 12.7%.
As to `O=C(CCl)NCCc1cccc2ccccc12`, the Inhibition % came out at 24.9%.
With `C=CC(=O)N1CCN(c2cccnc2)C(=O)C1`, the Inhibition % was found to be 7.51%.
Take `C=CC(=O)NCCc1cncnc1`: the Inhibition % amounted to 10.1%.
As for `CCN(CC)C(=O)CNc1ccc(Cl)c(C#N)n1`, the Inhibition % is reported as 9.41%.
Turning to `CC1(C)OB(c2cnc(N3CCC(CO)C3)nc2)OC1(C)C` (stereo not shown), the Inhibition % was 10.6%.
For the compound `N#Cc1ncc(C(=O)O)s1`, the Inhibition % was found to be 2.28%.
The figure for `CN(C)C(=O)c1cncc(B2OC(C)(C)C(C)(C)O2)c1` is 4.96%.
The result for `CC(C(=O)N1CCCC2CCCCC21)N1C(=O)CCC1=O` (stereo not shown) reads 9.57%; that for `C=CC(=O)NC1CS(=O)(=O)C1`, 25.7%.
On to `O=c1onc(-c2cccnc2)n1Cc1cc(F)cc(F)c1`, for which the Inhibition % came out at 16.6%.
In the case of `C=CC(=O)N1C[C@@H](CO)[C@H](c2ccsc2)C1`, the Inhibition % is reported as 12.4%.
As to `Cc1ccc(S)nn1`, the Inhibition % was determined as 28.1%.
Turning to `COc1ccc(S(=O)(=O)n2cnc(C)c2)c(C)c1C`, the Inhibition % is reported as 7.34%.
The figure for `O=C1NC2CCCCCCC12` (stereo not shown) is 5.28%.
In the case of `C=CC(=O)NCCc1ccc2c(c1)COC2`, the Inhibition % was found to be 9.48%.
As for `O=C1OCCC1Sc1nccc(C(F)(F)F)n1` (stereo not shown), the Inhibition % stood at 9.47%.
The result for `CC1(C)OB(c2ccc(N=S(C)(C)=O)cc2)OC1(C)C` reads 5.97%; that for `NC(=O)C1CCCN1S(=O)(=O)C=Cc1ccccc1Cl` (stereo not shown), -0.649%.
The result for `CN(C1CCCCC1)S(=O)(=O)c1ccc(S)nc1` reads 14.2%; that for `NC(=O)C1CCCN(C(=O)CCl)C1` (stereo not shown), 35.5%; that for `Cc1ccc(C=C(C#N)C(=O)NC2CCCCC2C)o1` (stereo not shown), -2.33%.
The result for `C=CC(=O)N1CCc2nnc(N(C)C)cc2C1` reads 3.13%.
Take `Cc1ccc(C=C(C#N)C(=O)NCCc2ccccc2)o1`: the Inhibition % is given as 4.17%.
The result for `Cc1ccc(C=C(C#N)S(C)(=O)=O)cc1` reads 10.2%; that for `CC1(C)OB(c2ccc3ccoc3c2)OC1(C)C`, 9.89%.
As to `C=CC(=O)N[C@@H](C)C(=O)Nc1cccnc1C`, the Inhibition % is listed as 25.3%.
The figure for `O=S1(=O)C=CC(Nc2cccc(C(F)(F)F)c2)C1` (stereo not shown) is 17.4%; for `Cc1cc2cc(B3OC(C)(C)C(C)(C)O3)ccc2[nH]1` it is 6.59%.

The values are drawn from PMC9574860, “Chemical Toolkit for PARK7: Potent, Selective, and High-Throughput” (Journal of Medicinal Chemistry, 2022).
